Here are results for 89 molecules from PMC4336329 (PLoS ONE, 2015).

Screen size: about 310,000 compounds; about 2,200 (0.71%) showed an effect of 50% or more. The effect is printed as a negative number. Some of the results follow.

The target in the experiment is human ether-à-go-go-related gene (hERG) potassium channel (human, UniProt Q12809). As to the kind of experiment: primary screen, population patch clamp on CHO cells stably expressing hERG.
Sequence of human ether-à-go-go-related gene (hERG) potassium channel (Q12809 whole entry, looked up): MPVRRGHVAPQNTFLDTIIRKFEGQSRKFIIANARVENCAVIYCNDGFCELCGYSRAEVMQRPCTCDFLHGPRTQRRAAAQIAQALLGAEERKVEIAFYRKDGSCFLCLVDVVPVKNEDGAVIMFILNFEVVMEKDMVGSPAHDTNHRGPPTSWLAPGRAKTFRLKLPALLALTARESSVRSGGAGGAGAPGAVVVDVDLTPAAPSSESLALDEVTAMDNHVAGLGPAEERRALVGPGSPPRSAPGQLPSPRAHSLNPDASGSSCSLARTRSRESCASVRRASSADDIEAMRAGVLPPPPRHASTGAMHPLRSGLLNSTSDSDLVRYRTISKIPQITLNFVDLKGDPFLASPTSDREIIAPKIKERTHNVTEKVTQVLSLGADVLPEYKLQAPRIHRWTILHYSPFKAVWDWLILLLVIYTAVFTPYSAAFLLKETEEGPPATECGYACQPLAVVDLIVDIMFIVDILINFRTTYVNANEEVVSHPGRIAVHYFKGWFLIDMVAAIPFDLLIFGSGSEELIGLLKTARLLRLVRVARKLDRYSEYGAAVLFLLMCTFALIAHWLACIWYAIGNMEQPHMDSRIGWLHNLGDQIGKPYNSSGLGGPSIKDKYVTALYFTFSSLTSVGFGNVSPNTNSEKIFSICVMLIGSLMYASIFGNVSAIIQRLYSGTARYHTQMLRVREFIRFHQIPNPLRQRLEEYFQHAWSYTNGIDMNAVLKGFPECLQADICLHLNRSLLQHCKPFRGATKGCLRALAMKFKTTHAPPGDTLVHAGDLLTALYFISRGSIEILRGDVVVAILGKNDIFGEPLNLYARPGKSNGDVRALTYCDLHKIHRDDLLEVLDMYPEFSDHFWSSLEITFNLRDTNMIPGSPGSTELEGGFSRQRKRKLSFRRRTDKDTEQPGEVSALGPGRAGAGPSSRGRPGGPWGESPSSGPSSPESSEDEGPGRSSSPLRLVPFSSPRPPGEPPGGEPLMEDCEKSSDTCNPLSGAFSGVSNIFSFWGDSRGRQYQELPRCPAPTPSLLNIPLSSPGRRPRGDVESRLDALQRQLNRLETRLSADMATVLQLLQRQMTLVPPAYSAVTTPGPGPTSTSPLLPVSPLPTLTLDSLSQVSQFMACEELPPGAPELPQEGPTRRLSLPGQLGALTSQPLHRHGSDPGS
`CCOC(=O)c1c(COC(=O)c2ccco2)nc2ccccc2[n+]1[O-]`: the “hERG current change (%, negative = inhibition) at 1uM” value was determined as 2.05%.
Take `O=C(Nc1ccc(N2CCOCC2)cc1)C1CCCN(S(=O)(=O)c2cccc(C(F)(F)F)c2)C1` (centres unmarked): the “hERG current change (%, negative = inhibition) at 1uM” value was 11%.
As to `Cc1ccc(S(=O)(=O)Nc2cc(C(F)(F)F)ccc2N2CCOCC2)c(C)c1`, the “hERG current change (%, negative = inhibition) at 1uM” value was 8.79%.
As for `CC1CCC(NC(=O)COC(=O)CSc2ccc(C(N)=O)cc2[N+](=O)[O-])CC1` (centres unmarked), the figure is 14.5%.
Consider `CC(C)(C)c1ccc(OCCNC(=O)c2ncn[nH]2)cc1`, for which the “hERG current change (%, negative = inhibition) at 1uM” value was found to be 5.94%.
For the molecule `Cc1ccccc1SCC(=O)Nc1cc(C(F)(F)F)ccc1N1CCOCC1`, the “hERG current change (%, negative = inhibition) at 1uM” value is given as 10.8%.
Consider `Cc1ccc2cc(CN(C(=O)c3ccncc3)C(C)C)c(=O)[nH]c2c1`, for which the “hERG current change (%, negative = inhibition) at 1uM” value came to 1.84%.
With `CC(Cc1ccccn1)NC(=O)CCc1nnc(C2CCCCC2)o1` (centres unmarked), the “hERG current change (%, negative = inhibition) at 1uM” value amounted to 11.4%.
As to `N=c1nc(N)nc2n1NC(c1ccc(F)cc1)=CS2`, the “hERG current change (%, negative = inhibition) at 1uM” value was -3.69%.
`CCOC(=O)C(C#N)c1ccccn1` (centres unmarked): the “hERG current change (%, negative = inhibition) at 1uM” value came out at 10.8%.
As for `Cc1oc(-c2ccccc2)cc1C(=O)Nc1cccc(/C=C\C(=O)O)c1`, the “hERG current change (%, negative = inhibition) at 1uM” value is reported as 3.96%.
As for `CCOc1cccc(CN2CCN(Cc3ccc(C)o3)C(CCO)C2)c1O` (centres unmarked), the figure is -0.204%; as for `CC(=O)Oc1cc2cccc(OC(C)=O)c(=O)c2c(OC(C)=O)c1OC(C)=O`, 5.64%; as for `O=C(Nc1cccs1)OCCN1CCN(Cc2ccccc2)CCC1=O`, 4.05%.
Turning to `CCOc1ccc(CN(C(=O)c2oc3ccccc3c2C)C2CCS(=O)(=O)C2)cc1` (centres unmarked), the “hERG current change (%, negative = inhibition) at 1uM” value is given as -6.11%.
For `COC1=CC(=O)OC(/C=C/c2ccccc2)C1` (centres unmarked), the “hERG current change (%, negative = inhibition) at 1uM” value came out at 0.591%.
As for `Cc1sc2ccccc2[n+]1CC(=O)c1ccccc1.[Br-]`, the figure is 18.4%.
As for `CC(C)(C)c1cn(-c2ccc(F)cc2)c(=S)[nH]1`, the figure is -5.57%; as for `CCN(CC)C(=O)Oc1ccc2oc(=O)cc(-c3cc4cccc(OC)c4o3)c2c1`, 16%; as for `CCOc1ccccc1NC(=O)NCc1ccco1`, 11%.
Regarding `COc1ccc(Cl)cc1C(=O)NCCCn1ccnc1`, the “hERG current change (%, negative = inhibition) at 1uM” value was found to be 12.2%.
As for `COc1cc(CN2CCN(Cc3c[nH]c4ccccc34)CC2CCO)cc(OC)c1` (centres unmarked), the figure is 6.2%.
`Cc1ccc(C(=O)CSc2nnc(COc3cccc(C)c3)o2)cc1`: the “hERG current change (%, negative = inhibition) at 1uM” value was found to be 6.57%.
As for `N/C(=N/OC(=O)c1cccc([N+](=O)[O-])c1)c1cccc([N+](=O)[O-])c1`, the figure is 9.82%.
As for `COc1ccc(C(C)NC(=O)Nc2ccc(C(C)=O)cc2)cc1OC` (centres unmarked), the figure is 10.8%; as for `CCNS(=O)(=O)c1ccc(NC(=O)c2ccc(Cn3cc([N+](=O)[O-])cn3)o2)cc1`, -5.91%.
Take `CC(O)C1C(=O)OC2(C)CC(C)(C)NC(=S)N12` (centres unmarked): the “hERG current change (%, negative = inhibition) at 1uM” value is 4.14%.
Consider `Cc1cc(NC(=O)c2ccc(Cl)cc2)cc(C)c1OCC(=O)N1CCOCC1`, for which the “hERG current change (%, negative = inhibition) at 1uM” value was -0.639%.
As to `CCOc1cc(CNCCCN2CCOCC2)ccc1OCC(=O)Nc1cccc2ccccc12.Cl`, the “hERG current change (%, negative = inhibition) at 1uM” value worked out at 6.79%.
On to `CCc1nc2ccccc2c(C(=O)O)c1C`, for which the “hERG current change (%, negative = inhibition) at 1uM” value is 4.07%.
Take `CN(C)S(=O)(=O)c1ccc(C(=O)Nc2cccnc2)cc1`: the “hERG current change (%, negative = inhibition) at 1uM” value is given as -19.3%.
As for `Cn1c(=O)[nH]c(=O)c2c1nc(SCCN1CCCCC1)n2Cc1ccccc1`, the figure is -81.6%.
As for `O=C(NC(=S)Nc1ccc(Cl)c(C(=O)O)c1)c1ccco1`, the figure is 4.24%.
For `CCOc1ccc(CC2NCCc3cc(OCC)c(OCC)cc32)cc1OCC` (centres unmarked), the “hERG current change (%, negative = inhibition) at 1uM” value is recorded as 5.35%.
`N#C/C(=C\c1cccnc1)C(=O)Nc1ccc(S(N)(=O)=O)cc1`: the “hERG current change (%, negative = inhibition) at 1uM” value was found to be 0.87%.
`N#Cc1ccc(CSc2nnc(-c3ccccn3)n2-c2ccc(Cl)cc2)cc1`: the “hERG current change (%, negative = inhibition) at 1uM” value is listed as -4.32%.
As to `Cc1ccc(N2CC(C(=O)Nc3ccc(S(=O)(=O)NCC4CCCO4)cc3)CC2=O)cc1` (centres unmarked), the “hERG current change (%, negative = inhibition) at 1uM” value is 11.4%.
As for `O=C(O)Cc1sc(-c2ccc(Cl)cc2)nc1-c1ccccc1`, the figure is 1.43%; as for `CCCCN(CCO)CCCC`, 8.17%; as for `Fc1ccc(-n2cnnn2)c(F)c1`, 9.59%.
For `N#Cc1c(NC(=O)c2nc3ncccn3n2)sc2c1CCCCC2`, the “hERG current change (%, negative = inhibition) at 1uM” value was determined as 8.49%.
Take `CN(Cc1cnn(C)c1)C(=O)C1CCC(=O)N(Cc2ccc(Cl)cc2)C1` (centres unmarked): the “hERG current change (%, negative = inhibition) at 1uM” value is 14.4%.
Turning to `N#C/C(=C\c1ccc(O)c(Br)c1)C(=O)N1CCCCC1`, the “hERG current change (%, negative = inhibition) at 1uM” value stood at 11%.
Turning to `N#CCCCn1c(-c2ccccc2)noc1=O`, the “hERG current change (%, negative = inhibition) at 1uM” value is 2.95%.
Regarding `Cc1c(C(=O)N2CCOCC2)c(S(=O)(=O)Nc2ccc(F)cc2)c(C)n1C`, the “hERG current change (%, negative = inhibition) at 1uM” value is listed as 15.7%.
For `Cc1cc2nc3s/c(=C/c4ccc(-c5ccccc5C(=O)O)o4)c(=O)n3c2cc1C`, the “hERG current change (%, negative = inhibition) at 1uM” value is reported as 14.8%.
As for `COc1ccc(S(=O)(=O)N2CCOCC2)cc1NC(=O)[C@@H]1CCCN1C(=O)c1cccs1`, the figure is 0.964%; as for `COc1ccnc(N=CNOCc2ccc(Cl)cc2)c1C#N`, 15%.
With `Cc1ccc(-c2nc(=O)[nH]c3ccccc23)cc1`, the “hERG current change (%, negative = inhibition) at 1uM” value came out at 4.15%.
On to `O=C(Nc1cccc(/C=C/c2ccccn2)c1)c1ccc(-n2cncn2)c([N+](=O)[O-])c1`, for which the “hERG current change (%, negative = inhibition) at 1uM” value is -1.91%.
`CCOC(=O)C1=C(O)C(=O)N(c2ccc(S(N)(=O)=O)cc2)C1c1ccc(Br)cc1` (centres unmarked): the “hERG current change (%, negative = inhibition) at 1uM” value stood at 6.14%.
As for `CN(C)CCCNC(=O)CC(c1ccc(F)cc1)c1ccco1` (centres unmarked), the figure is -9.46%; as for `O=C(O)C1CCC(N2C(=O)c3c(Cl)c(Cl)c(Cl)c(Cl)c3C2=O)CC1` (centres unmarked), 10.2%; as for `CCC(C)(C)NC(=O)CN(C(=O)CNS(=O)(=O)c1ccccc1)c1ccccc1`, 9.05%.
As for `Cc1ccc(OCC(=O)NCc2ccco2)cc1C`, the figure is 5.85%.
As for `COc1ccc(C2=NO[C@@H]3C(=O)N(c4cccc(C)c4C)C(=O)[C@H]23)cc1OC`, the figure is 7.43%; as for `Cc1ccc(CC2C(=O)N(c3cc(C)ccc3C)C(=O)C2C)cc1` (centres unmarked), 12.5%.
With `COCCN(CCOC)C(=S)Nc1ccccc1`, the “hERG current change (%, negative = inhibition) at 1uM” value was determined as 18.3%.
As for `Cc1ccccc1Nc1nc(N)nc(COC(=O)c2ccc(S(=O)(=O)N(C)C)cc2)n1`, the figure is 2.76%; as for `CC1CCc2c(sc(NC(=O)c3c([N+](=O)[O-])cnn3C)c2C(N)=O)C1` (centres unmarked), 11.7%; as for `Cc1ccc(NC(=O)c2cc(S(=O)(=O)NCCC3=CCCCC3)ccc2F)cc1`, 5.01%.
Consider `NNC(=O)CN1C(c2cccc(Cl)c2)=Nc2ccc(Br)cc2C1c1ccccc1` (centres unmarked), for which the “hERG current change (%, negative = inhibition) at 1uM” value is listed as -0.199%.
For the molecule `Cc1cccc(-c2nnn(CC/C(N)=N/O)n2)c1`, the “hERG current change (%, negative = inhibition) at 1uM” value is reported as 8.75%.
Take `O=C1CC(C(=O)N2CCC3(CC2)OCCO3)CN1CCc1ccccc1` (centres unmarked): the “hERG current change (%, negative = inhibition) at 1uM” value is reported as 13.1%.
Turning to `O=[N+]([O-])c1ccc(N2CCCCC2)cc1SCCO`, the “hERG current change (%, negative = inhibition) at 1uM” value was 7.84%.
On to `Cc1cc(C)cc(OCC(=O)Nc2ccc(CN3CCCCC3)cc2)c1`, for which the “hERG current change (%, negative = inhibition) at 1uM” value was -4.82%.
Take `COc1ccc(-c2cn3cccnc3n2)cc1NC(=O)c1ccc(Br)o1`: the “hERG current change (%, negative = inhibition) at 1uM” value worked out at 1.4%.
For the molecule `Cc1ccc(NC(=O)N(Cc2cc3cc(C)cc(C)c3[nH]c2=O)CC2COCCO2)cc1` (centres unmarked), the “hERG current change (%, negative = inhibition) at 1uM” value turned out to be 4.06%.
As for `Cc1ccc(-c2nc3cc(Br)cnc3nc2-c2ccc(C)cc2)cc1`, the figure is 9.6%; as for `COc1ccc(-c2oc3ccccc3c(=O)c2OC(C)=O)cc1`, 7.41%; as for `N#CC(c1ccc(Cl)cc1)c1nc2ccccc2nc1C(F)(F)F` (centres unmarked), 15.2%.
Take `COCCCNc1nc2c(c(=O)n(Cc3cccc(Br)c3)c(=O)n2C)n1C`: the “hERG current change (%, negative = inhibition) at 1uM” value came out at 12.7%.
As for `COc1cccc(C(=O)NCC(c2ccco2)N2CCc3ccccc3C2)c1` (centres unmarked), the “hERG current change (%, negative = inhibition) at 1uM” value came out at 7.01%.
As to `Cn1c(SCC(=O)Nc2ccc(F)cc2F)nnc1-c1cccnc1`, the “hERG current change (%, negative = inhibition) at 1uM” value is given as -6.16%.
For `O=C(CSc1nnc(-c2cccnc2)n1Cc1ccccc1)NCc1ccco1`, the “hERG current change (%, negative = inhibition) at 1uM” value is 8.7%.
As to `COCCN(CC(=O)Nc1cccc(C)c1C)C(=O)c1cc(-c2cccs2)nn1-c1ccccc1`, the “hERG current change (%, negative = inhibition) at 1uM” value is 10.7%.
In the case of `O=C(O)CCS(=O)(=O)Cc1ccccc1Cl`, the “hERG current change (%, negative = inhibition) at 1uM” value is recorded as 4.75%.
Take `Cc1nc2ccccc2c2c1CC(C(C)(Cl)Br)O2` (centres unmarked): the “hERG current change (%, negative = inhibition) at 1uM” value is listed as -25.1%.
As for `O=S(=O)(Cc1ccccc1)N1CCN(Cc2ccc(F)cc2Cl)CC1`, the figure is 7.32%.
As for `COc1ccc(NC(=O)COC(=O)C2CCC(C(C)(C)C)CC2)c([N+](=O)[O-])c1` (centres unmarked), the “hERG current change (%, negative = inhibition) at 1uM” value was 18.2%.
On to `COc1cc(/C=N/NC(=O)/C(=C\c2ccc([N+](=O)[O-])cc2)NC(=O)c2ccccc2)cc(OC)c1O`, for which the “hERG current change (%, negative = inhibition) at 1uM” value amounted to 6.44%.
On to `Cc1ccc(OCCOCCN2CCN(C)CC2)c(C(C)(C)C)c1.O=C(O)C(=O)O`, for which the “hERG current change (%, negative = inhibition) at 1uM” value is on record as 13.2%.
On to `COc1ccc(CN2C(=O)NC(=O)/C(=C\c3ccco3)C2=O)cc1`, for which the “hERG current change (%, negative = inhibition) at 1uM” value is 22%.
Consider `C=CCNC(=S)N1CCC(C(=O)c2ccc(F)cc2)CC1`, for which the “hERG current change (%, negative = inhibition) at 1uM” value amounted to 5.26%.
With `O=C(NCCS(=O)(=O)c1ccc(Br)cc1)c1ccc(F)cc1`, the “hERG current change (%, negative = inhibition) at 1uM” value was 11.1%.
For the molecule `O=C(CCN1C(=O)/C(=C/c2ccccc2Cl)SC1=S)NCCCN1CCOCC1`, the “hERG current change (%, negative = inhibition) at 1uM” value stood at 7.34%.
In the case of `COc1ccc2c(c1OC)C(=O)N1c3ccccc3COC21` (centres unmarked), the “hERG current change (%, negative = inhibition) at 1uM” value stood at 4.85%.
`CCCCC(=O)Nc1ccc(C2C(=O)c3ccccc3C2=O)cc1`: the “hERG current change (%, negative = inhibition) at 1uM” value stood at 10.9%.
In the case of `C=CCSc1nnc2nc3c(nn12)c1cc(C)ccc1n3CC=C`, the “hERG current change (%, negative = inhibition) at 1uM” value is on record as -33.5%.
